# Measured values from the supplement of paper PMC10126150.
# Values marked as one replicate rest on one cluster of the flow cell; about a third of the high ones do not repeat.
# System: ATP
# Assay: switch fluorescence ratio, 500 uM ATP over buffer (Cy3 cluster intensity, sum of 5 cycles each) (fold (ratio)); higher = stronger signal-on switching upon ATP binding; sequences stand for … in TCGTCGGCAGCGTCAGATGTGTATAAGAGACAGTTTTTTTTTTTTTTTTTTTTTTTTT…TC
# Details: aptamer strand: ATP DNA aptamer (quencher-CACCTGGGGGAGTATTGCGGAGGAAGG + anchor), 100 nM annealed; ATP concentration: 500 uM; one replicate
# How it was run: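 Per cluster, summed Cy3 intensity from the target cycles was divided by that from the buffer cycles to give the fluorescence ratio, then averaged per switch-domain sequence. Clusters outside 100-1000 RFU were excluded. The Cy3-labelled switching-strand clusters, on a modified Illumina MiSeq flow-cell, were annealed to 100 nM quencher-labelled ATP aptamer and imaged in selection buffer, then after 15 min with 500 uM ATP at 22 °C, for five cycles with NaOH stripping and re-annealing between them.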
# 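Also: ATP exposure 15 min at 22 °C before imaging.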
row,Sequence,switch fluorescence ratio
1,AGATCTATCT,1
2,AGATGAAATT,0.991
3,AGATGAGTTG,0.974
4,AGATGCGATA,0.934
5,AGATGGGCAT,0.99
6,AGATGGGGTC,0.995
7,AGATTACTGA,1.05
8,AGATTAGACG,1.06
9,AGATTGACAT,1.04
10,AGATTGCGCG,1.02
11,AGATTGGTTT,0.999
12,AGATTTCCTG,0.955
13,AGCAAAAGTG,1.04
14,AGCAACTTAG,1.06
15,AGCAAGATGG,1.12
16,AGCAATACTT,1.39
17,AGCAATCTA,2.13
18,AGCAATGGAA,1.25
19,AGCAATTATC,4.13
20,AGCAATTTTG,1.06
21,AGCACAAGCT,1.01
22,AGCACAGACC,1.22
23,AGCACAGAGT,0.989
24,AGCACGAGCT,1.05
25,AGCACGTGGA,1.05

row,Sequence,switch fluorescence ratio
1,AGCAGCCTGT,1.05
2,AGCAGCGTTT,1.08
3,AGCAGCTGCA,1.02
4,AGCAGGCTAA,1.02
5,AGCAGGCTAC,1.26
6,AGCAGTCTTC,0.99
7,AGCATAGTG,1.03
8,AGCATATCTT,0.996
9,AGCATATGC,1.05
10,AGCATCGTAC,1.78
11,AGCATCGTTT,0.968
12,AGCATGGATG,0.962
13,AGCATGGTTC,1.04
14,AGCATTAAGT,0.966
15,AGCCACGGGC,1.03
16,AGCCATTACT,1.19
17,AGCCCCATCA,0.95
18,AGCCCTTTTC,0.991
19,AGCCGAACGC,1.79
20,AGCCGGCGA,1.06
21,AGCCGGGAAG,1.01
22,AGCCGTATTG,1.04
23,AGCCTAAAAT,0.993
24,AGCCTAAGCG,0.962
25,AGCCTAGAAC,1

row,Sequence,switch fluorescence ratio
1,AGCCTCAGGC,1
2,AGCCTCCGAA,4.17
3,AGCCTCGACT,0.976
4,AGCCTCTGCT,1.02
5,AGCCTGGCTA,1.02
6,AGCCTGTGGG,0.999
7,AGCCTTATAA,0.98
8,AGCCTTGAGT,0.958
9,AGCGAAAGGG,1.01
10,AGCGAACCCC,1.17
11,AGCGACTCTA,1.02
12,AGCGAGCACT,1.01
13,AGCGAGGTGC,1.03
14,AGCGAGTTCG,0.978
15,AGCGATAAGC,0.98
16,AGCGATGAAG,1.01
17,AGCGATGTAG,0.987
18,AGCGATGTGT,0.98
19,AGCGATTTGC,1.02
20,AGCGCACCGA,1.06
21,AGCGCACTTG,1.04
22,AGCGCAGTGG,1
23,AGCGCATACT,2.47
24,AGCGCCACGT,0.968
25,AGCGCCGTCC,1.02

row,Sequence,switch fluorescence ratio
1,AGCGCGTGAA,1.03
2,AGCGCGTTCG,0.98
3,AGCGGAAAGG,1.03
4,AGCGGAACGG,1.01
5,AGCGGACAGA,1.04
6,AGCGGACTTA,0.966
7,AGCGGCAAAG,1.03
8,AGCGGCAGGC,0.96
9,AGCGGCCGCT,0.999
10,AGCGGCCTGT,0.972
11,AGCGGCGCGG,0.968
12,AGCGGGACTG,1.01
13,AGCGGGCTGA,1.05
14,AGCGGGGACT,1.04
15,AGCGGGTAAC,1
16,AGCGGGTAAT,0.947
17,AGCGGGTATG,1.06
18,AGCGGGTTCA,1.01
19,AGCGGTTACT,1.11
20,AGCGTACGGT,1.05
21,AGCGTAGCTA,1.01
22,AGCGTAGG,0.995
23,AGCGTATCC,1.01
24,AGCGTATTTC,1.01
25,AGCGTCTGAG,0.965
